Measurements taken from a collection of fitness landscapes (doi:10.1016/j.celrep.2020.107928).
Over roughly 81,000 sequences, “one-hybrid fitness for binding NBS DNA” has its median near -0.1; the highest 2% begin near 0.36. The list shows a part of the results.

B1: Caulobacter ParB omega fusion; a variant is named by its letters at X, in order, B8GW30 (parent)
chain: MESVVVGEPGMSEGRRGLGRGLSALLGEVDAAPAQAPGEQLGGSREAPIEILQRNPDQPRRTFREEDLEDLSNSIREKGVLQPILVRPSPDTAGEYQIVAGERAWRAAQRAGLKTVPIMVRELDDLAVLEIGIIENVQRADLNVLEEALSYKVLMEKFERTQENIAQTIGKSXSHVANXMRLLXLPDEVQSYLVSGELTAXHARAIAAAADPVALAKQIIEGGLSVRETEALARKAPNLSAGKSKGGRPPRVKDTDTQALESDLSSVLGLDVSIDHRGSTGTLTITYATLEQLDDLCNRLTRGI

Variants of: B1
Assay: one-hybrid fitness for binding NBS DNA (the Noc-binding site; scaled: cognate 1, non-cognate 0); higher = stronger binding
Settings: with NBS DNA site
Outline: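 Caulobacter ParB libraries with four specificity codons randomised were screened by bacterial one-hybrid selection in the E. coli USO strain, using a HIS3 reporter whose site lies 19 bp from the promoter. Selection ran for 48 hours at 37°C on M9 lacking histidine, with 0.1 mM IPTG and 5 mM 3-AT. Plasmids were Illumina-sequenced before and after selection, three replicate libraries were pooled, and variants with under 10 reads were dropped. Fitness is the log change in each variant's read ratio to wild type, rescaled against the cognate and non-cognate sites.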

Variant	one-hybrid fitness for binding NBS DNA
NLEN	≤ 0.2
FNLG	≤ 0.2
TMKH	≤ 0.2
LFES	≤ 0.2
KDID	≤ 0.2
KVEV	≤ 0.2
DTRN	≤ 0.2
SCQW	≤ 0.2
IMKG	≤ 0.2
KSIE	≤ 0.2
RHFV	≤ 0.2
SSKL	≤ 0.2
MLVT	≤ 0.2
RPPA	≤ 0.2
SWSC	≤ 0.2
AEPY	≤ 0.2
RKRG	0.238
LYKF	≤ 0.2
HACC	≤ 0.2
GSVW	≤ 0.2
ILKW	≤ 0.2
EYWV	≤ 0.2
IRAC	≤ 0.2
QDQF	≤ 0.2
EAKC	≤ 0.2
VDLS	≤ 0.2

Variant	one-hybrid fitness for binding NBS DNA
ILNL	≤ 0.2
YART	≤ 0.2
AKDP	≤ 0.2
AANL	≤ 0.2
GEYS	≤ 0.2
QVLY	≤ 0.2
WTEY	≤ 0.2
NRHR	≤ 0.2
GHTG	≤ 0.2
QWRL	≤ 0.2
QKDL	≤ 0.2
HFQC	≤ 0.2
MAPA	≤ 0.2
YSSF	≤ 0.2
FVLS	≤ 0.2
NLGA	≤ 0.2
KTKP	≤ 0.2
PPEF	≤ 0.2
RRLR	0.702
DECI	≤ 0.2
WAYA	≤ 0.2
ASFC	≤ 0.2
GQSC	≤ 0.2
TSMC	≤ 0.2
RCPT	≤ 0.2
CRYV	≤ 0.2

Variant	one-hybrid fitness for binding NBS DNA
SIPA	≤ 0.2
YWNG	≤ 0.2
QKTQ	≤ 0.2
ADPT	≤ 0.2
WFCS	≤ 0.2
HCCS	≤ 0.2
HIPW	≤ 0.2
KKTD	≤ 0.2
SAPM	≤ 0.2
SVTQ	≤ 0.2
WGPG	≤ 0.2
TTTL	≤ 0.2
WTAY	≤ 0.2
QPTI	≤ 0.2
YNVP	≤ 0.2
PGCP	≤ 0.2
KCER	≤ 0.2
RSGW	≤ 0.2
MALK	≤ 0.2
SSNS	≤ 0.2
SAFC	≤ 0.2
VWAI	≤ 0.2
HLFT	≤ 0.2
YHQE	≤ 0.2
TASP	≤ 0.2
PVFC	≤ 0.2

Variant	one-hybrid fitness for binding NBS DNA
PQLL	≤ 0.2
MSDF	≤ 0.2
QHMW	≤ 0.2
LSWY	≤ 0.2
NVAT	≤ 0.2
MCRV	≤ 0.2
RNEQ	≤ 0.2
SMTP	≤ 0.2
LTMC	≤ 0.2
PCPF	≤ 0.2
VSAT	≤ 0.2
MHDC	≤ 0.2
RTVF	≤ 0.2
DPPA	≤ 0.2
RALG	≤ 0.2
RPQI	≤ 0.2
NQPA	≤ 0.2
DPDC	≤ 0.2
PRLQ	≤ 0.2
NQNY	≤ 0.2
AYIY	≤ 0.2
HSTF	≤ 0.2
SLRK	≤ 0.2
DWFI	≤ 0.2
VMSD	≤ 0.2
WSDT	≤ 0.2

Variant	one-hybrid fitness for binding NBS DNA
VFTD	≤ 0.2
YITR	≤ 0.2
TNRL	≤ 0.2
KPST	≤ 0.2
RVPT	≤ 0.2
TAED	≤ 0.2
VAKA	≤ 0.2
EVSW	≤ 0.2
PFST	≤ 0.2
AACV	≤ 0.2
MCHG	≤ 0.2
DVFL	≤ 0.2
IAGE	≤ 0.2
SITF	≤ 0.2
SHLC	≤ 0.2
IASG	≤ 0.2
ARCY	≤ 0.2
KFRV	≤ 0.2
THVW	≤ 0.2
NPAW	≤ 0.2
GQET	≤ 0.2
MTNT	≤ 0.2
CFNA	≤ 0.2
RLEA	≤ 0.2
PGAY	≤ 0.2
YSVT	≤ 0.2

Variant	one-hybrid fitness for binding NBS DNA
AFPA	≤ 0.2
HQAC	≤ 0.2
NPKH	≤ 0.2
MPHR	≤ 0.2
SMSC	≤ 0.2
QKGP	≤ 0.2
WMHG	≤ 0.2
LSLG	≤ 0.2
TKPI	≤ 0.2
HIRH	≤ 0.2
PLST	≤ 0.2
RIQI	≤ 0.2
TSPL	≤ 0.2
ITGL	≤ 0.2
CNHS	≤ 0.2
KPEL	≤ 0.2
LSVE	≤ 0.2
PAHM	≤ 0.2
GFAR	≤ 0.2
FSGS	≤ 0.2
NLRD	≤ 0.2
CKNT	≤ 0.2
LRLQ	≤ 0.2
